Test results: patent US20090298769A1 (CLEVELAND CLINIC FOUNDATION, published 2009)

Key:
[1] = molecular target: T1, αvβ3 integrin on human endothelial cells (HUVEC; vessels of human prostate tissue) (human, UniProt P06756 31-1048; P05106 27-788); assay: co-immunoprecipitation (anti-β3 IP, anti-Fyn blot), HUVEC with or without VEGF
T1 construct: whole, on cells; Endogenous receptor; also called vitronectin receptor

[2] = molecular target: T2, VEGFR-2 of human endothelial cells (HUVEC) (human, UniProt P35968); assay: co-immunoprecipitation (anti-VEGFR-2 IP, anti-Fyn blot), HUVEC with or without VEGF
T2 construct: whole, on cells; Endogenous, detected in cell lysates or by staining; also called VEGF receptor-2
T2 sequence (P35968 20-1356): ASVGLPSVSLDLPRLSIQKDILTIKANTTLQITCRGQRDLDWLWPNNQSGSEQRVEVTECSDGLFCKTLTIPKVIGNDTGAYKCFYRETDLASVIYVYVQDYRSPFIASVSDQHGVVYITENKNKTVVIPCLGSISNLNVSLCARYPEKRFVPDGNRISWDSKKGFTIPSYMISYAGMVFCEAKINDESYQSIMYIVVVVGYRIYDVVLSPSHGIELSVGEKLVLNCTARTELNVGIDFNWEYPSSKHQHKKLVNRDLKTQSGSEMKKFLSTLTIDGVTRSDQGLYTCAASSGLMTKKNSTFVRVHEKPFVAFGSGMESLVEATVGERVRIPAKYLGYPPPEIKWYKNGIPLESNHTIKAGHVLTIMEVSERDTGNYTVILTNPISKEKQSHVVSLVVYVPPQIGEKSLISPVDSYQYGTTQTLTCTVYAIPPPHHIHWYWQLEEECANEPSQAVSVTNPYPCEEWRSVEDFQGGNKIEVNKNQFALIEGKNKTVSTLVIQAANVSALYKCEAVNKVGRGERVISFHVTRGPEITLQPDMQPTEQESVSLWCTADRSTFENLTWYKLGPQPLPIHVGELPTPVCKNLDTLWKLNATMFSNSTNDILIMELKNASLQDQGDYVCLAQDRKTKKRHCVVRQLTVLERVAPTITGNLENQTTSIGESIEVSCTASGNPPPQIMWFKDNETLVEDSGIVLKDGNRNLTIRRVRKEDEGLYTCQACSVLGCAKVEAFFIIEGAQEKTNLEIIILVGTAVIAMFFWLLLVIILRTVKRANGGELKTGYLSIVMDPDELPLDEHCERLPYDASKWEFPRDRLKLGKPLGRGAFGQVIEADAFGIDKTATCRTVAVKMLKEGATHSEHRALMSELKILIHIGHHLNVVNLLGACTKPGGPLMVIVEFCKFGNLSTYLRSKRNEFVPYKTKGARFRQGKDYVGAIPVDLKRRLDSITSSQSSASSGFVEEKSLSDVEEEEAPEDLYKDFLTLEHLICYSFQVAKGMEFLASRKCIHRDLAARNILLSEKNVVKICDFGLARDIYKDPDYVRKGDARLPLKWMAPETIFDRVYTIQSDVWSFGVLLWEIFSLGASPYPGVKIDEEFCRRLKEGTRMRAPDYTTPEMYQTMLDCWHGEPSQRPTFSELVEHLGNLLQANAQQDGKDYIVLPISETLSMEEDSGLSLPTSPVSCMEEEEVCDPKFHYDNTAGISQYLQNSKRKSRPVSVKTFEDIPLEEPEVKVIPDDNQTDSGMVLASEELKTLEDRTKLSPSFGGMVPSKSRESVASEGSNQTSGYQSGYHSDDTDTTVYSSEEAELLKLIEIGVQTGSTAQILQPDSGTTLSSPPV

Sequence of UniProt P06756 (P06756 31-1048, chain 1 of 2): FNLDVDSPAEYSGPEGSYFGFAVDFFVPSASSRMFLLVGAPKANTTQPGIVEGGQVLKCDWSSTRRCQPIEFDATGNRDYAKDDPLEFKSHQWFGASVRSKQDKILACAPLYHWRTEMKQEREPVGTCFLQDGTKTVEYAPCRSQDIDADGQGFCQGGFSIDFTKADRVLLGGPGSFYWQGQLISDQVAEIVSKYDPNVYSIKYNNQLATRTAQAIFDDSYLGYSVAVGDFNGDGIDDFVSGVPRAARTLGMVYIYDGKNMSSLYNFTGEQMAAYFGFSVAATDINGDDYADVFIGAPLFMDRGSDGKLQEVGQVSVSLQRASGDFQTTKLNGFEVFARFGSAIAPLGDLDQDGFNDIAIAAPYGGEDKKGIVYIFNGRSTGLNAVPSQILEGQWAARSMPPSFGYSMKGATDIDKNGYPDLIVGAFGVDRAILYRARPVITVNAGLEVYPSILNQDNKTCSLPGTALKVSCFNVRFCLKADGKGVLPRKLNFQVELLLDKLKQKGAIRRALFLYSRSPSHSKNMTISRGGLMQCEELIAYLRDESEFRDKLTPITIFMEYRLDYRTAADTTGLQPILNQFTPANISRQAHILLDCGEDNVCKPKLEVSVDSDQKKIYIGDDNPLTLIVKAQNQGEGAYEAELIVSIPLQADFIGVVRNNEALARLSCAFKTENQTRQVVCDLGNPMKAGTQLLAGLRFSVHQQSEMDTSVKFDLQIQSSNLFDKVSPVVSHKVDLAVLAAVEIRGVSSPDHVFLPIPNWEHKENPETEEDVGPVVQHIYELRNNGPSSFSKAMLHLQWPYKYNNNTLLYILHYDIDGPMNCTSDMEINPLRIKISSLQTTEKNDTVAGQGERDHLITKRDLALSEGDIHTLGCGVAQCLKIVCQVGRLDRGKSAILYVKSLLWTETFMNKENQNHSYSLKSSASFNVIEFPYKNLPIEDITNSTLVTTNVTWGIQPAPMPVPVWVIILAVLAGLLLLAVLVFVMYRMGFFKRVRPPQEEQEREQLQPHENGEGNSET
Sequence of UniProt P06756 (P05106 27-788, chain 2 of 2, further chain): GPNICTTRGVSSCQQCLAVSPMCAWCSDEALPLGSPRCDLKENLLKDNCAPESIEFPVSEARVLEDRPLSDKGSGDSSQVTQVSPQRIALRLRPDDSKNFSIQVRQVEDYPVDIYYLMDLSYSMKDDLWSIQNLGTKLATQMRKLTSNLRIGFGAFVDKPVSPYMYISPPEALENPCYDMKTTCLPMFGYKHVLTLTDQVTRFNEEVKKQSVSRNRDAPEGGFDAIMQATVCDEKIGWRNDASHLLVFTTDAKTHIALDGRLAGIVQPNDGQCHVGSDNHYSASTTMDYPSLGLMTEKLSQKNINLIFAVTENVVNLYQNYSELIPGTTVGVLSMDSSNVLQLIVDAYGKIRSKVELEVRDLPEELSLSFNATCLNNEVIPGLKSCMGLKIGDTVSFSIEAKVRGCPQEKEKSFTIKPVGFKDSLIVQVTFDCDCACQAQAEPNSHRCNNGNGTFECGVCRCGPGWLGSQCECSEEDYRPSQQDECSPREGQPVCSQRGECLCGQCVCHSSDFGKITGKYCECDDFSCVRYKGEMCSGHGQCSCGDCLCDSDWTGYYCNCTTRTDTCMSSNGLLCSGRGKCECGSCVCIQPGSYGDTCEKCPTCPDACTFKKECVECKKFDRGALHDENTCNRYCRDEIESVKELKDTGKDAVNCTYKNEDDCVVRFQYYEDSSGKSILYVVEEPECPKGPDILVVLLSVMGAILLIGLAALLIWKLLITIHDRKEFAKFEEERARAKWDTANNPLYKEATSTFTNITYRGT

B1: Fyn of HUVEC (endogenous) (enzyme)
chain: not shown
**Q.** Does B1 bind [1]?
**A.** Result: no binding

**Q.** Does B1 bind [2]?
**A.** Result: no binding
